From patent publication US11041000B2, “Peptide inhibitors of interleukin-23 receptor and their use to treat inflammatory diseases” (priority 2019, dated 2021)
pIC50: −log10 of the molar value. Not every detail of the peptide structures is certain; ends, links or a residue may be inferred. Numbered stars: 1 amine (or outer) side, 2 acyl side, 3 side chain; on linkers, the order of the positions; unused ones are H or OH. Bridge positions count the residues as written; N and C are the ends. Square brackets hold non-standard residues; d marks the D form. Peptide text beside a SMILES is read from it. X2 = CCCc1cccc2c(C[C@H](N[*:1])C(=O)[*:2])c[nH]c12; Trp(7-Me) = Cc1cccc2c(C[C@H](N)C(=O)O)c[nH]c12; Trp(1-Me) = Cn1cc(C[C@H](N)C(=O)O)c2ccccc21; Abu(4-yl) = O=C([C@H](CC[*:3])N[*:1])[*:2]; 2Nal = N[C@@H](Cc1ccc2ccccc2c1)C(=O)O; AEF = NCCOc1ccc(C[C@H](N)C(=O)O)cc1; Cit = NC(=O)NCCC[C@H](N)C(=O)O; Pen = CC(C)(S)[C@H](N)C(=O)O; αMeK = C[C@](N)(CCCCN)C(=O)O; Aib = CC(C)(N)C(=O)O; βAla = NCCC(=O)O; Sar = CNCC(=O)O

Biological target: IL-23R-expressing DB cells (Homo sapiens, UniProt Q5VWK5)
Experiment: DB cells IL23R pSTAT3 cell assay (pStat3HTRF)
Format: cell-based
Conditions: DB cells stimulated with IL-23 0.5 nM, 30 minutes, phospho-STAT3 in cell lysates; read-out: pStat3 HTRF

Sequence of IL-23R-expressing DB cells (Q5VWK5 24-629 limits assumed): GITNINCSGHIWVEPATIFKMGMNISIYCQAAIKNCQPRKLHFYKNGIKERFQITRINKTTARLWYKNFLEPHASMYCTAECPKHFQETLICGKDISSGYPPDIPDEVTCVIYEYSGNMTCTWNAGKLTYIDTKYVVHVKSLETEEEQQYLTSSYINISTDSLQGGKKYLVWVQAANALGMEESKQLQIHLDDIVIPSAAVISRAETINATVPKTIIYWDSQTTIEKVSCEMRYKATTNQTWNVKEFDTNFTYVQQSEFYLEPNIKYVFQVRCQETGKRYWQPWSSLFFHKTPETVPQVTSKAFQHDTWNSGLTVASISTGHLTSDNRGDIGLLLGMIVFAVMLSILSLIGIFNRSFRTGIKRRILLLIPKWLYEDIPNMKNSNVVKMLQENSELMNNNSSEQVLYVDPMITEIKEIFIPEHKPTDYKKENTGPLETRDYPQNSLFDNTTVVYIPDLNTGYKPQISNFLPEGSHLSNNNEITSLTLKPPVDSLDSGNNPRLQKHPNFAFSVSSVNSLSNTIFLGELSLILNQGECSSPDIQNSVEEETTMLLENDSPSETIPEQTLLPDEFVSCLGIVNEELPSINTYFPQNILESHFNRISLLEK

Structure (SMILES): CC(=O)NCCCC[C@H](NC(=O)[C@](C)(CCCCN)NC(=O)[C@H](Cc1ccc2ccccc2c1)NC(=O)[C@H](Cc1ccc(OCCN)cc1)NC(=O)[C@H]1NC(=O)[C@H](CCCNC(N)=O)NC(=O)[C@H](Cc2c[nH]c3c(C)cccc23)NC(=O)[C@H]([C@@H](C)O)NC(=O)[C@H](CC(N)=O)NC(=O)[C@@H](NC(C)=O)C(C)(C)SSC1(C)C)C(=O)N[C@@H](CC(N)=O)C(=O)N[C@H](CCCNC(=N)N)C(N)=O [compound 256] (Ac-[Pen]NT[Trp(7-Me)][Cit][Pen][AEF][2Nal][αMeK]K(Ac)N[dR]-NH2; disulfide 1-6)
- pIC50: 9.12

Structure (SMILES): CC(=O)NCCCC[C@H](NC(=O)[C@](C)(CCCCN)NC(=O)[C@H](Cc1ccc2ccccc2c1)NC(=O)[C@H](Cc1ccc(OCCN)cc1)NC(=O)[C@H]1NC(=O)C(C)(C)NC(=O)[C@H](Cc2c[nH]c3c(C)cccc23)NC(=O)[C@H]([C@@H](C)O)NC(=O)[C@H](CC(N)=O)NC(=O)[C@@H](NC(C)=O)C(C)(C)SSC1(C)C)C(=O)N[C@@H](CC(N)=O)C(=O)NCCC(N)=O [compound 241] (Ac-[Pen]NT[Trp(7-Me)][Aib][Pen][AEF][2Nal][αMeK]K(Ac)N[βAla]-NH2; disulfide 1-6)
- pIC50: 7.90

Structure (SMILES): CC(=O)NCCCC[C@@H]1NC(=O)[C@H](Cc2c[nH]c3c(C)cccc23)NC(=O)[C@H]([C@@H](C)O)NC(=O)[C@H](C)NC(=O)[C@@H](NC(C)=O)C(C)(C)SSC(C)(C)[C@@H](C(=O)N[C@@H](Cc2ccc(OCCN)cc2)C(=O)N[C@@H](Cc2ccc3ccccc3c2)C(=O)N[C@@](C)(CCCCN)C(=O)N[C@@H](CCCCNC(C)=O)C(=O)N[C@@H](CC(N)=O)C(=O)N[C@H](CC(C)C)C(N)=O)NC1=O [compound 328] (Ac-[Pen]AT[Trp(7-Me)]K(Ac)[Pen][AEF][2Nal][αMeK]K(Ac)N[dL]-NH2; disulfide 1-6)
- pIC50: 9.11

Structure (SMILES): CC(=O)NCCCC[C@@H]1NC(=O)[C@H](Cc2c[nH]c3c(C)cccc23)NC(=O)[C@H]([C@@H](C)O)NC(=O)[C@H](CC(N)=O)NC(=O)[C@@H](NC(C)=O)C(C)(C)SSC(C)(C)[C@@H](C(=O)N[C@@H](Cc2ccc(OCCN)cc2)C(=O)N[C@@H](Cc2ccc3ccccc3c2)C(=O)N[C@@](C)(CCCCN)C(=O)N[C@@H](CCC(=O)O)C(=O)NCCC(=O)NCCC(N)=O)NC1=O [compound 273]
- pIC50: 8.57

Structure (SMILES): CC(=O)NCCCC[C@H](NC(=O)[C@](C)(CCCCN)NC(=O)[C@H](Cc1ccc2ccccc2c1)NC(=O)[C@H](Cc1ccc(OCCN)cc1)NC(=O)[C@H]1NC(=O)[C@H](CCCNC(N)=O)NC(=O)[C@H](Cc2c[nH]c3c(C)cccc23)NC(=O)[C@H]([C@@H](C)O)NC(=O)[C@H](CC(N)=O)NC(=O)[C@@H](NC(C)=O)C(C)(C)SSC1(C)C)C(=O)N[C@@H](CC(N)=O)C(=O)NC(C)(C)C(=O)N[C@H](CCCCN)C(N)=O [compound 344] (Ac-[Pen]NT[Trp(7-Me)][Cit][Pen][AEF][2Nal][αMeK]K(Ac)N[Aib][dK]-NH2; disulfide 1-6)
- pIC50: 9.14

Structure (SMILES): CC(=O)NCCCC[C@H](NC(=O)[C@](C)(CCCCN)NC(=O)[C@H](Cc1cn(C)c2ccccc12)NC(=O)[C@H](Cc1ccc(OCCN)cc1)NC(=O)[C@H]1NC(=O)[C@H](CCC(N)=O)NC(=O)[C@H](Cc2c[nH]c3c(C)cccc23)NC(=O)[C@H]([C@@H](C)O)NC(=O)[C@H](CC(N)=O)NC(=O)[C@@H](NC(C)=O)C(C)(C)SSC1(C)C)C(=O)N[C@@H](CC(N)=O)C(=O)NCCC(N)=O [compound 283] (Ac-[Pen]NT[Trp(7-Me)]Q[Pen][AEF][Trp(1-Me)][αMeK]K(Ac)N[βAla]-NH2; disulfide 1-6)
- pIC50: 8.34

Structure (SMILES): CCCc1cccc2c(C[C@@H]3NC(=O)[C@H]([C@@H](C)O)NC(=O)[C@H](CC(N)=O)NC(=O)[C@@H](NC(C)=O)C(C)(C)SSC(C)(C)[C@@H](C(=O)N[C@@H](Cc4ccc(OCCN)cc4)C(=O)N[C@@H](Cc4ccc5ccccc5c4)C(=O)N[C@@](C)(CCCCN)C(=O)N[C@@H](CCCCNC(C)=O)C(=O)N[C@@H](CC(N)=O)C(=O)N[C@H](CC(C)C)C(N)=O)NC(=O)[C@H](CCCCNC(C)=O)NC3=O)c[nH]c12 [compound 285] (Ac-[Pen]NT[X2]K(Ac)[Pen][AEF][2Nal][αMeK]K(Ac)N[dL]-NH2; disulfide 1-6)
- pIC50: 9.07

Structure (SMILES): CC(=O)NCCCC[C@@H]1NC(=O)[C@H](Cc2c[nH]c3c(C)cccc23)NC(=O)[C@H]([C@@H](C)O)NC(=O)[C@H](CC(N)=O)NC(=O)[C@@H](NC(C)=O)C(C)(C)SSC(C)(C)[C@@H](C(=O)N[C@@H](Cc2ccc(OCCN)cc2)C(=O)N[C@@H](Cc2ccc3ccccc3c2)C(=O)N[C@@](C)(CCCCN)C(=O)N[C@@H](CCCCNC(C)=O)C(=O)N[C@@H](CC(N)=O)C(=O)N2CCC[C@@H]2C(N)=O)NC1=O [compound 254]
- pIC50: 8.44

Structure (SMILES): CC(=O)NCCCC[C@H](NC(=O)[C@](C)(CCCCN)NC(=O)[C@H](Cc1ccc2ccccc2c1)NC(=O)[C@H](Cc1ccc(OCCN)cc1)NC(=O)[C@H]1NC(=O)[C@H](CCCNC(N)=O)NC(=O)[C@H](Cc2c[nH]c3c(C)cccc23)NC(=O)[C@H]([C@@H](C)O)NC(=O)[C@H](CC(N)=O)NC(=O)[C@@H](NC(C)=O)C(C)(C)SSC1(C)C)C(=O)N[C@@H](CC(N)=O)C(=O)N(C)CC(N)=O [compound 339] (Ac-[Pen]NT[Trp(7-Me)][Cit][Pen][AEF][2Nal][αMeK]K(Ac)N[Sar]-NH2; disulfide 1-6)
- pIC50: 8.20

Structure (SMILES): CC(=O)NCCCC[C@H](NC(=O)[C@](C)(CCCCN)NC(=O)[C@H](Cc1ccc2ccccc2c1)NC(=O)[C@H](Cc1ccc(OCCN)cc1)NC(=O)[C@H]1NC(=O)[C@H](CCCNC(N)=O)NC(=O)[C@H](Cc2c[nH]c3c(C)cccc23)NC(=O)[C@H]([C@@H](C)O)NC(=O)[C@H](CC(N)=O)NC(=O)[C@@H](NC(C)=O)C(C)(C)SSC1(C)C)C(=O)N[C@@H](CC(N)=O)C(=O)NC(C)(C)C(=O)N[C@@H](C)C(N)=O [compound 342] (Ac-[Pen]NT[Trp(7-Me)][Cit][Pen][AEF][2Nal][αMeK]K(Ac)N[Aib]A-NH2; disulfide 1-6)
- pIC50: 9.18

Structure (SMILES): CC(=O)NCCCC[C@H](NC(=O)C1(NC(=O)[C@H](Cc2ccc3ccccc3c2)NC(=O)[C@H](Cc2ccc(OCCN)cc2)NC(=O)[C@H]2NC(=O)[C@H](CCC(N)=O)NC(=O)[C@H](Cc3c[nH]c4c(C)cccc34)NC(=O)[C@H]([C@@H](C)O)NC(=O)[C@H](CC(N)=O)NC(=O)[C@@H](NC(C)=O)C(C)(C)SSC2(C)C)CCC1)C(=O)N[C@@H](CC(N)=O)C(=O)NCCC(N)=O [compound 277]
- pIC50: 9.19

Structure (SMILES): COc1cccc2[nH]cc(C[C@@H]3NC(=O)[C@H]([C@@H](C)O)NC(=O)[C@H](CC(N)=O)NC(=O)[C@@H](NC(C)=O)C(C)(C)SSC(C)(C)[C@@H](C(=O)N[C@@H](Cc4ccc(OCCN)cc4)C(=O)N[C@@H](Cc4ccc5ccccc5c4)C(=O)N[C@@](C)(CCCCN)C(=O)N[C@@H](CCCCNC(C)=O)C(=O)N[C@@H](CC(N)=O)C(=O)NCCC(N)=O)NC(=O)[C@H](CCC(N)=O)NC3=O)c12 [compound 229]
- pIC50: 7.64

Structure (SMILES): CC(=O)NCCCC[C@@H]1NC(=O)[C@H](Cc2c[nH]c3c(C)cccc23)NC(=O)[C@H]([C@@H](C)O)NC(=O)[C@H](CCC(N)=O)NC(=O)[C@@H](NC(=O)[C@@H](CCCNC(=N)N)NC(C)=O)CCSC[C@@H](C(=O)N[C@@H](Cc2ccc(OCCN)cc2)C(=O)N[C@@H](Cc2ccc3ccccc3c2)C(=O)N[C@@](C)(CCCCN)C(=O)N[C@@H](CCCCNC(C)=O)C(=O)N[C@@H](CC(N)=O)C(=O)N[C@H](CCCCN)C(=O)N(C)CC(N)=O)NC1=O [compound 323] (Ac-[dR][Abu(4-yl)]QT[Trp(7-Me)]K(Ac)C[AEF][2Nal][αMeK]K(Ac)N[dK][Sar]-NH2; thioether 2-7)
- pIC50: 8.27
